Molecules are shown by their SMILES. In all, about 150,000 compounds went through this assay and about 540 (0.36%) showed an effect of 50% or more. The list shows a part of the results.

The test deals with Plasmodium falciparum. Put plainly: Primary screen in NF54 nanoGlo assay, in single point, at 2uM, 72h; a lower Z score goes with more inhibition. Format: functional, Erythrocyte. To be noted: timepoint 72 hour.
As to `NC(N)=Nc1nc(C2CCC(F)(F)CC2)cs1`, the “% Inhibition” value stood at 4% and the Z score is listed as -0.54.

For `COCCN1CC[C@H](CN(C)c2ccncn2)C1`, the “% Inhibition” value amounted to 1% and the Z score was -0.2.

As to `COc1cc(NC(=O)Cn2c(=O)n(C)c(=O)c3c2c(-c2ccccc2)cn3C)cc(OC)c1OC`, the “% Inhibition” value was found to be 46% and the Z score is -6.22.

`CN(C(=O)C[C@](C)(O)c1ccccc1)c1ccc2c(c1)CCO2`: the “% Inhibition” value is -6% and the Z score was determined as 0.8.

Take `CCN(CC(F)F)C(=O)Nc1cc(Cl)ccc1Cl`: the “% Inhibition” value is recorded as -11% and the Z score came out at 1.71.

With `CC(C)(O)CN1CCN(Cc2nc(C(=O)N3CCN(c4ccccc4)CC3)co2)CC1`, the “% Inhibition” value was -9% and the Z score was 0.84.

For the compound `COc1cc(C)ccc1NC(=O)N1CCC[C@@H]1Cn1cncn1`, the “% Inhibition” value is on record as -12% and the Z score came to 1.79.

Consider `COc1ccc2c(c1)[C@]1(C)CCCc3c(O)c(-c4ccccc4)c(=O)n-2c31`, for which the “% Inhibition” value is recorded as -9% and the Z score was determined as 1.17.

`Cc1csc2c(N[C@H]3CCN(C4CCCC4)C3)ncnc12`: the “% Inhibition” value is reported as -6% and the Z score came to 0.66.

Consider `COc1cc(-c2nc(=O)c(CCC(=O)NCCN(C)C)n[nH]2)ccc1OCc1cccc(F)c1`, for which the “% Inhibition” value is listed as -8% and the Z score turned out to be 0.73.

As to `CN1C(=O)[C@@H](NC(=O)NCCc2cnc3c(Cl)cnn3c2)Cc2ccccc21`, the “% Inhibition” value is on record as -2% and the Z score turned out to be 0.28.

For `Cc1cc(C)cc(C(=O)N[C@@H](C)c2nnc3c(=O)[nH]ccn23)c1`, the “% Inhibition” value worked out at 1% and the Z score was -0.16.

In the case of `Cc1c(CN2CC[C@H](CNC(=O)c3cnccn3)C2)[nH]c2ccccc12`, the “% Inhibition” value came out at 8% and the Z score is -1.

Take `Cc1occc1CNCCc1cn(C)nn1`: the “% Inhibition” value is -1% and the Z score is reported as 0.27.

Consider `O=C(NCc1ccncc1)c1ccc(N2CCCCS2(=O)=O)cc1`, for which the “% Inhibition” value is listed as -8% and the Z score was found to be 1.09.

For `CCc1cc(N2CCc3onc(-c4cccc5ccccc45)c3C2)ncn1`, the “% Inhibition” value was -7% and the Z score is listed as 1.18.

Take `COC(=O)c1ccc(C(=O)N2CC[C@@H](c3ccccc3)S(=O)(=O)CC2)cc1`: the “% Inhibition” value is -10% and the Z score turned out to be 1.66.

For the compound `CCc1nn(-c2cccc(C)c2)c(N2CCN(C)CC2)c1CN(CC)Cc1ccco1`, the “% Inhibition” value is -10% and the Z score was determined as 1.18.

Consider `CN1CC[C@H](CN(C)c2cccc(F)c2C#N)C1`, for which the “% Inhibition” value turned out to be 6% and the Z score is -0.94.

Take `COC[C@@](C)(C#N)NC(=O)c1ccc(F)c(Cl)c1F`: the “% Inhibition” value is -9% and the Z score came to 0.98.

For the compound `COc1cc2nc(N(C)C)c(CN(CCN(C)C)C(C)=O)cc2c(OC)c1OC`, the “% Inhibition” value is listed as -13% and the Z score came out at 2.43.

As for `COCCCNC(=O)CCc1nc(N2CCCCCC2)c2c(C)noc2n1`, the “% Inhibition” value is -8% and the Z score is 1.31.

Take `O=C1CN(C(=O)c2cnc(C(F)(F)F)nc2)c2cccc(F)c2N1`: the “% Inhibition” value is reported as -8% and the Z score is 1.1.

As to `c1ccc(Cn2cccn2)c(CN2CCO[C@]3(CNCCOC3)C2)c1`, the “% Inhibition” value was -10% and the Z score is 1.31.

As for `Cc1cc(NC(=O)C2CCCCC2C(=O)N2CCCC2)ccn1` (configuration not stated), the “% Inhibition” value was determined as 5% and the Z score was -0.71.

In the case of `CC(=O)N1CCc2cc(N3C[C@@H](C(=O)NCc4cccc(F)c4)CC3=O)ccc21`, the “% Inhibition” value was -6% and the Z score is recorded as 1.08.

On to `Cc1cccc(NC(=O)N2CCC[C@H]2c2nc3cc(-c4ccc(F)cc4F)ccc3o2)c1C`, for which the “% Inhibition” value was -12% and the Z score worked out at 1.8.

Turning to `C[C@H]1CN(Cc2cc(O)nc(-c3ccccc3)n2)CCN1c1nccn2cnnc12`, the “% Inhibition” value was -3% and the Z score is 0.53.

For the compound `CC[C@H](NCc1scnc1C)c1cccc(C#N)c1O`, the “% Inhibition” value was 7% and the Z score is -1.22.

Consider `CCOC1CC(c2nc(Cc3ccc(F)cc3C)no2)C1` (configuration not stated), for which the “% Inhibition” value is reported as -42% and the Z score is listed as 4.89.

Turning to `C[C@@]12CN(C(=O)NCCc3ccns3)C[C@@H]1CS(=O)(=O)C2`, the “% Inhibition” value is on record as -2% and the Z score was 0.25.

In the case of `CNC(=O)C(C)(C)CNC1C[C@@H]2CCCC[C@H]12` (some centres not stated), the “% Inhibition” value was 18% and the Z score is recorded as -2.22.

Regarding `CCn1nc(C)cc1C(=O)N[C@@H](C(C)(C)C)C(F)(F)F`, the “% Inhibition” value is on record as -10% and the Z score was found to be 2.09.

`O=C(c1cnc2nccn2c1)N1CCC[C@H]1C(F)(F)F`: the “% Inhibition” value is listed as -14% and the Z score is reported as 2.78.

Consider `CCOC(=O)c1nnn(Cc2ccc(C)cc2)c1NC(=O)CN1CCOCC1`, for which the “% Inhibition” value is 8% and the Z score is on record as -1.51.

For the compound `C[C@H](Nc1ncccc1-c1nnc(-c2ccc(Cl)cc2)o1)c1ccccn1`, the “% Inhibition” value is reported as -45% and the Z score was determined as 4.31.

For `CCCc1nc(C)c(C(=O)n2nccc2-c2cccc(N)c2)s1`, the “% Inhibition” value is given as -18% and the Z score was determined as 1.94.

`FC(F)(F)c1cccc(NCn2nc(-c3cccnc3)oc2=S)c1`: the “% Inhibition” value is -6% and the Z score is listed as 0.71.

On to `CCc1nc(C(=O)N2CCO[C@H](C(=O)O)C2)nn1-c1c(Cl)cccc1Cl`, for which the “% Inhibition” value is -4% and the Z score is listed as 0.78.

Turning to `CC(=O)Nc1cnccc1C(=O)N1CC=CCC1`, the “% Inhibition” value is given as 5% and the Z score was -0.78.

As for `Cc1cc(F)ccc1C[C@H](C)NC(=O)N1Cc2cn[nH]c2CC(C)(C)C1`, the “% Inhibition” value came out at 2% and the Z score is -0.34.

Values taken from ChEMBL document CHEMBL4888484, “Replenishing the malaria drug discovery pipeline: Screening and hit evaluation of the MMV Hit Generation Library 1 (HGL1) against asexual blood stage Plasmodium falciparum ,using a nano luciferase reporter read-out” (2022).
